Reference: paper PMC10726135
The other results are listed elsewhere or left out. At the low end of the ranking, values are background and their order means little. Measured with an extract: partners may take part in the binding.

What follows are sequences tested against T1, HNF4alpha8 (COS-7 nuclear extract) (UniProt P41235-5) (assay: protein-binding microarray). Conditions: COS-7 nuclear extract on double-stranded Agilent 4x180k PBM; binding buffer, salt, pH and temperature not given; high values mean tight binding; double strand, one strand shown; sequences stand for … in …GCCTAGGGAGATTAGAGTATCGGTCGA.
T1 sequence: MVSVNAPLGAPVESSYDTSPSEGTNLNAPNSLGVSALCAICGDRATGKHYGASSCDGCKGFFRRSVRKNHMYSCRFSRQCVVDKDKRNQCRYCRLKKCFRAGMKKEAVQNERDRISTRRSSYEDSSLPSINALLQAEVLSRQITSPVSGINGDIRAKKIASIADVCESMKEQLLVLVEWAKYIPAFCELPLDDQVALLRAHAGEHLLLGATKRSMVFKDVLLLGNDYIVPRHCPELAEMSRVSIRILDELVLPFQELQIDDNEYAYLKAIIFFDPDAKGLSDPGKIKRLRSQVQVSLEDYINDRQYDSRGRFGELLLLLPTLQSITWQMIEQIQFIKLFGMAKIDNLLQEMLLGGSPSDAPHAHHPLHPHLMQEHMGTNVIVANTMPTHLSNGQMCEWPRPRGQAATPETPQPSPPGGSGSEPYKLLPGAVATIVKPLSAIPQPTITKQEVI

**Q.** For TGCTGGAGATGAGGCTCAGACCTGACCTTT, which binding signal (log2 normalized intensity) is on record?
**A.** Its binding signal (log2 normalized intensity) is 7.17.

**Q.** Which binding signal (log2 normalized intensity) does the source give for TAAACAGCATTTGTTTTAAGTTCATAGGTC here?
**A.** The binding signal (log2 normalized intensity) was 4.97.

**Q.** Which binding signal (log2 normalized intensity) does the source give for GATTTTGTTGGGGAACTTTGCCCGGATTCC here?
**A.** Its binding signal (log2 normalized intensity) is 3.21.

**Q.** Which binding signal (log2 normalized intensity) does the source give for AAAGGTTAACATTCTTGCTTTCTGACTCTT here?
**A.** The binding signal (log2 normalized intensity) was 1.

**Q.** For GGCGGCGCGGCCGGAGCGGCGGACCCGGCG, which binding signal (log2 normalized intensity) is on record?
**A.** The binding signal (log2 normalized intensity) was 0.392.

**Q.** With AGGGGAGGCTGAGGTTTTCATCCCAGGGCT as the sequence, how does the binding signal (log2 normalized intensity) read?
**A.** Its binding signal (log2 normalized intensity) is -1.41.

**Q.** Which binding signal (log2 normalized intensity) does the source give for CAGAGGGTGGCAGCAGCAGGCAGGGACTTT here?
**A.** The binding signal (log2 normalized intensity) was 2.15.

**Q.** TTAACCTTTGATCATATGCATTTCCCTAGA was tested. Which binding signal (log2 normalized intensity) did it give?
**A.** Its binding signal (log2 normalized intensity) is 3.82.

**Q.** Which binding signal (log2 normalized intensity) does the source give for ATCACACAAAACGCACAGAGGCCCCTGATG here?
**A.** Its binding signal (log2 normalized intensity) is -1.24.

**Q.** With TAGTCTAGACTTTGCTTTCTTGGAGGTTAA as the sequence, how does the binding signal (log2 normalized intensity) read?
**A.** The binding signal (log2 normalized intensity) was 2.19.

**Q.** Which binding signal (log2 normalized intensity) does the source give for TTGCAGCAAGGAATTCAACCCTTGTCACTT here?
**A.** Its binding signal (log2 normalized intensity) is 3.35.

**Q.** How did the binding signal (log2 normalized intensity) turn out when GACATGCAGTATGGGGACTTTGGACTCCTG was run?
**A.** The binding signal (log2 normalized intensity) was 8.41.

**Q.** ACAGACTCTGGGAGATAAAGCAGAGGGCTG was tested. Which binding signal (log2 normalized intensity) did it give?
**A.** Its binding signal (log2 normalized intensity) is -1.35.

**Q.** Which binding signal (log2 normalized intensity) does the source give for AGAGCAATCTCTCATCTGCCTTGTGATTTC here?
**A.** The binding signal (log2 normalized intensity) was 0.631.

**Q.** With ACCAGGGGTCATTTTATGGGAAAACAGAAT as the sequence, how does the binding signal (log2 normalized intensity) read?
**A.** The binding signal (log2 normalized intensity) was 1.5.

**Q.** Which binding signal (log2 normalized intensity) does the source give for ATAACATGAGGATACTGATAACATGAGGTA here?
**A.** The binding signal (log2 normalized intensity) was -0.314.

**Q.** With TATCTGTAAAATGGACATAGTAACAACCTA as the sequence, how does the binding signal (log2 normalized intensity) read?
**A.** Its binding signal (log2 normalized intensity) is -1.25.

**Q.** CAGCCACGCTCCTCTTATCATTAGATTCCA was tested. Which binding signal (log2 normalized intensity) did it give?
**A.** The binding signal (log2 normalized intensity) was -0.531.

**Q.** For AGGAGATGTGGTGGACTTTAACGACCTTTG, which binding signal (log2 normalized intensity) is on record?
**A.** The binding signal (log2 normalized intensity) was 5.28.

**Q.** For AGAGAATAGCTCAGGTCCAAGGAACCTCAC, which binding signal (log2 normalized intensity) is on record?
**A.** The binding signal (log2 normalized intensity) was -1.32.

**Q.** CACAGTGTAGAAGGCAAGGGTCAAGATGTC was tested. Which binding signal (log2 normalized intensity) did it give?
**A.** Its binding signal (log2 normalized intensity) is 2.31.

**Q.** How did the binding signal (log2 normalized intensity) turn out when TTCGGTGCTGACCTTTGTTCACATTTGTGC was run?
**A.** Its binding signal (log2 normalized intensity) is 5.96.

**Q.** With GAGAAGTGAACTTTGCCCTCTCTTTCTGGA as the sequence, how does the binding signal (log2 normalized intensity) read?
**A.** Its binding signal (log2 normalized intensity) is 8.26.

**Q.** For CACTGTTGCCCCTTCCAAAGTCCACCTCAA, which binding signal (log2 normalized intensity) is on record?
**A.** Its binding signal (log2 normalized intensity) is 5.11.

**Q.** CTAGGAGAGTCCGGGGCAAACAAGGGCAAC was tested. Which binding signal (log2 normalized intensity) did it give?
**A.** Its binding signal (log2 normalized intensity) is 0.0674.

**Q.** AAAGAAGAATGTGGCCATTTTACTTGTCAA was tested. Which binding signal (log2 normalized intensity) did it give?
**A.** The binding signal (log2 normalized intensity) was 0.377.

**Q.** GCTTCTGCCCCAGACACGCTTGACTGGCTC was tested. Which binding signal (log2 normalized intensity) did it give?
**A.** The binding signal (log2 normalized intensity) was -1.28.

**Q.** How did the binding signal (log2 normalized intensity) turn out when ACTCACTAGCATTAGGACCTGTTTGTCTTG was run?
**A.** The binding signal (log2 normalized intensity) was 1.03.

**Q.** With TCTATTCTATCTGTATTCTGAAGCCCTACA as the sequence, how does the binding signal (log2 normalized intensity) read?
**A.** Its binding signal (log2 normalized intensity) is -0.992.

**Q.** For ATGATACAGCCTTTTGCCCCCAGGCTGCAA, which binding signal (log2 normalized intensity) is on record?
**A.** The binding signal (log2 normalized intensity) was 3.59.

**Q.** For TTATCATTACTTCTCAACTGATATGGCTCT, which binding signal (log2 normalized intensity) is on record?
**A.** The binding signal (log2 normalized intensity) was 0.393.

**Q.** For CAGCGTGAACTTTGACATGAGAGAAAAGAA, which binding signal (log2 normalized intensity) is on record?
**A.** Its binding signal (log2 normalized intensity) is 3.5.

**Q.** How did the binding signal (log2 normalized intensity) turn out when AACTGGTTCTGTGGAATTTGTGCTTATTTC was run?
**A.** Its binding signal (log2 normalized intensity) is 2.15.

**Q.** CATGTGCCAGATATGCCGAGAATGCAGCCT was tested. Which binding signal (log2 normalized intensity) did it give?
**A.** The binding signal (log2 normalized intensity) was -1.39.

**Q.** TGATGTTCCCCCTCCCTGGACTCCTGGGAC was tested. Which binding signal (log2 normalized intensity) did it give?
**A.** Its binding signal (log2 normalized intensity) is 4.43.

**Q.** How did the binding signal (log2 normalized intensity) turn out when GTTTTCCCATTCATGACATTGATTTATTGT was run?
**A.** Its binding signal (log2 normalized intensity) is 1.07.

**Q.** GTGAGAATCCCAGCTCGTGGGCATGCCTCC was tested. Which binding signal (log2 normalized intensity) did it give?
**A.** Its binding signal (log2 normalized intensity) is -1.37.

**Q.** How did the binding signal (log2 normalized intensity) turn out when GGGCCACGCCCTGCACCCTACGTAAATGCA was run?
**A.** Its binding signal (log2 normalized intensity) is -1.23.

**Q.** For CACAAACATCACCTACCTGACTCCTTAGGG, which binding signal (log2 normalized intensity) is on record?
**A.** Its binding signal (log2 normalized intensity) is -1.36.

**Q.** For ACTGGCCCATTAGAACAAAGATCAAAGCAG, which binding signal (log2 normalized intensity) is on record?
**A.** Its binding signal (log2 normalized intensity) is -1.37.

**Q.** How did the binding signal (log2 normalized intensity) turn out when GGCGCGGGATCCTCTTTCCTGCAGGCCCAT was run?
**A.** Its binding signal (log2 normalized intensity) is -1.28.

**Q.** GGTATCAGAGTGGAGCCAGATGCACACAGG was tested. Which binding signal (log2 normalized intensity) did it give?
**A.** The binding signal (log2 normalized intensity) was -1.32.

**Q.** For TGGTGGCACAGGGAATGGCTCGTATGAATG, which binding signal (log2 normalized intensity) is on record?
**A.** Its binding signal (log2 normalized intensity) is -0.602.

**Q.** With TTTGCAATGTAAACATCAAGGAAGAGAACT as the sequence, how does the binding signal (log2 normalized intensity) read?
**A.** Its binding signal (log2 normalized intensity) is -1.28.

**Q.** Which binding signal (log2 normalized intensity) does the source give for TTCTCCCCCGATAAGGCTGCCTCCTATCCT here?
**A.** The binding signal (log2 normalized intensity) was 3.

**Q.** How did the binding signal (log2 normalized intensity) turn out when AGAAACGCCTGGCGCTTATCTGAGCACACA was run?
**A.** The binding signal (log2 normalized intensity) was -1.37.
